# Reference: the BET-seq Pho4 binding data (Le et al. 2018)
# The list shows a part of the results. The energies were worked out here from pooled read counts, against the library average; single values are noisy.
# Biological target: T1, Pho4 (S. cerevisiae) (UniProt P07270)
# T1 sequence: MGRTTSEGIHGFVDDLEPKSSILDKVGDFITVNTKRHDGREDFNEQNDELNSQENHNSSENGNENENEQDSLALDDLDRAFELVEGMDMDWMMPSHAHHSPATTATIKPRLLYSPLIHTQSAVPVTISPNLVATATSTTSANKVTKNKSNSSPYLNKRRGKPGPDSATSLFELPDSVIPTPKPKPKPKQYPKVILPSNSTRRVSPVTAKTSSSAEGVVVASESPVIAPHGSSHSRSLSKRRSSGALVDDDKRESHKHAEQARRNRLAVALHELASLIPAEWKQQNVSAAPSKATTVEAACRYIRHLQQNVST
# Experiment: relative binding free energy (BET-seq); higher = weaker binding
# Settings: reference: library average
row,Sequence,relative binding free energy [kcal/mol]
1,AAAGGCACGTGGTTGG,-0.15
2,GTCAGCACGTGGTGAT,-0.13
3,TATTTCACGTGACTGT,0.33
4,TGAAGCACGTGGGTGT,-0.23
5,TCGGCCACGTGAAGGG,0.09
6,GTATTCACGTGAATCG,0.4
7,GCGTCCACGTGTGGGG,0.15
8,GTAGTCACGTGGTTTT,0.12
9,TTAGACACGTGTATGT,-0.04
10,GGTCTCACGTGGGTCA,0.01
11,TGAGTCACGTGAAGGG,0.22
12,TATTGCACGTGTTTAA,-0.18
13,AGATTCACGTGTTGTC,0.31
14,TACATCACGTGATTAT,0.35
15,ATGTGCACGTGTGTTC,0.03
16,TTCGGCACGTGGGATG,-0.12
17,GTGCCCACGTGTTGGT,0.08
18,TAATGCACGTGTATAT,-0.01
19,TGGGACACGTGTACGT,-0.01
20,GTGAGCACGTGCTATT,-0.08
21,TGCGTCACGTGGGTTG,0.1
22,TATGTCACGTGGTAAG,-0.02
23,GTCAGCACGTGTGGCT,0.09
24,GTATGCACGTGTTAGG,0.02
25,GTGCGCACGTGGAGTA,-0.05
26,GTTGCCACGTGGTTTT,-0.19

row,Sequence,relative binding free energy [kcal/mol]
1,GCGGGCACGTGTTGTT,-0.08
2,GTTAGCACGTGGCAGA,0.01
3,AGGTACACGTGGATGC,0.12
4,GGCTACACGTGGAGTG,0.04
5,ATACACACGTGTGGTG,-0.05
6,TGGAGCACGTGGGACG,-0.13
7,CAGGGCACGTGGGACG,-0.26
8,GTAGGCACGTGGGGTA,-0.29
9,TAGTGCACGTGTAGAA,0.1
10,CTTGGCACGTGCTATT,-0.08
11,ATGTGCACGTGTAGTG,0.03
12,ATTAACACGTGAAATG,0.21
13,GCATGCACGTGGGTGA,-0.09
14,GTGTGCACGTGCGTCG,-0.19
15,TGTCTCACGTGCGGGT,0.09
16,GTTAACACGTGCGAGT,0.19
17,AACTTCACGTGTTGTA,0.15
18,GTTAACACGTGGATTT,0.1
19,ACAGGCACGTGCGGTG,-0.23
20,GTGTTCACGTGAGCTT,0.3
21,GTTGTCACGTGTATTG,0.24
22,AAAAGCACGTGGGAGG,-0.11
23,ATATTCACGTGGTCGA,0.21
24,GGTCACACGTGAGGGA,0.39
25,ATGGTCACGTGATTGG,0.28
26,GGCGGCACGTGGGTTG,-0.14

row,Sequence,relative binding free energy [kcal/mol]
1,ATTAGCACGTGAATAT,0.06
2,TATCACACGTGTTTAT,0.12
3,ATTTGCACGTGTAAGA,0.1
4,GAGGTCACGTGGTAGC,0.15
5,GTTAGCACGTGAGAGG,0.2
6,GAAAGCACGTGAGGGT,0.34
7,TTATACACGTGTTACG,0.02
8,AGGAACACGTGGCTTG,0.05
9,GAGGGCACGTGGGTGT,-0.18
10,TTTGGCACGTGCGGGA,-0.23
11,TGAGGCACGTGTTACG,-0.19
12,GTGAGCACGTGCAGGC,0
13,ACGTTCACGTGGTGTC,0.27
14,ACTGGCACGTGGTGCG,-0.24
15,TGTCACACGTGAGTGG,0.31
16,GATGTCACGTGATTAT,0.35
17,ATTTTCACGTGTGATT,0.38
18,GGTCGCACGTGCGTTG,-0.11
19,TTTGGCACGTGGCGAA,-0.15
20,TTGTCCACGTGAGTAT,0.27
21,CTTTTCACGTGGTAGA,0.23
22,TGTTCCACGTGTTAGT,0.04
23,GTTGTCACGTGCAGGT,0.12
24,CTGGTCACGTGGGGAG,0.01
25,AAGTACACGTGGGAAT,0.02
26,ATACCCACGTGGGGGT,-0.26

row,Sequence,relative binding free energy [kcal/mol]
1,GGGGTCACGTGGTCAG,0.1
2,AAGTTCACGTGAGCGG,0.27
3,AAGTGCACGTGTAATT,0.02
4,GGTGGCACGTGTTTTG,-0.1
5,CGTTACACGTGGGTTG,-0.07
6,ATGTTCACGTGGGTAC,0.21
7,TATCACACGTGTTATG,0.39
8,TGTTTCACGTGGTATC,0.36
9,TTGGGCACGTGATTAG,-0.01
10,CCTGGCACGTGAGGGT,0.03
11,GTTCGCACGTGGGCGT,-0.07
12,ATGAGCACGTGTGTAC,0.02
13,AGGCCCACGTGGGTGT,-0.34
14,TATATCACGTGTATTT,0.08
15,CTATTCACGTGTAGGG,0.18
16,GATGGCACGTGTGGCA,0.13
17,TGTTTCACGTGGTTCG,0.31
18,AAGCTCACGTGTTTGG,0.2
19,GTAGCCACGTGAGTTG,0.07
20,TCTGGCACGTGTTGCG,-0.11
21,TGGGCCACGTGGTTCA,0.01
22,GGATTCACGTGGTACG,0.4
23,TGCAGCACGTGGAGCT,-0.03
24,AGGAGCACGTGTGGTA,0.09
25,TAAAGCACGTGAAGTT,0.28
26,GGAGTCACGTGGAAAT,0.29

row,Sequence,relative binding free energy [kcal/mol]
1,ATTCGCACGTGGGTAT,-0.25
2,GAGCTCACGTGAAGGG,0.38
3,AGATACACGTGGGCGT,-0.13
4,TTAGGCACGTGAATTT,0.26
5,GGGCTCACGTGTGATT,0.35
6,CTGTACACGTGGTATG,0.03
7,CGGGGCACGTGCGTTG,-0.2
8,AGTGACACGTGTATAG,0.08
9,CTTATCACGTGAGGTC,0.44
10,TGATTCACGTGAGTAT,0.37
11,AAAATCACGTGGTGGG,0.12
12,AGTGCCACGTGTGGAG,-0.18
13,ATTTACACGTGTTTAG,0.1
14,AGAATCACGTGCGTGG,0.01
15,TTCAACACGTGTTGCT,0.07
16,TAGTTCACGTGTTCAA,0.19
17,GGTTGCACGTGGCGCT,-0.06
18,GGTAGCACGTGAGGCT,0.17
19,TGGAGCACGTGTTCGG,-0.13
20,AGTGGCACGTGTTGTG,-0.13
21,GCCGACACGTGGGGTG,-0.08
22,GATTTCACGTGTATAT,0.2
23,GTGTCCACGTGGGGAT,-0.03
24,TCATGCACGTGTGTTC,0.18
25,TGGAACACGTGGGATG,-0.05
26,GTGTTCACGTGAGCTA,0.42

row,Sequence,relative binding free energy [kcal/mol]
1,CGGGGCACGTGTCGGT,-0.06
2,ACAAGCACGTGTTTGT,-0.02
3,TTATACACGTGGTAAG,-0.04
4,CTCGGCACGTGTGGTT,0.02
5,TTTGGCACGTGCTGGC,-0.22
6,ATTTGCACGTGCGACG,0.11
7,AGTTCCACGTGAATGT,0.26
8,GGTTCCACGTGGCGAT,0.13
9,TTAGGCACGTGATTCA,0.11
10,CTGGTCACGTGGTTGC,-0.05
11,GTGATCACGTGTTAAT,0.15
12,GATGACACGTGGGGTA,-0.04
13,TTGAGCACGTGTGATT,-0.05
14,CGTTTCACGTGATTGA,0.33
15,GCCGTCACGTGTGAGG,0.22
16,GTTTTCACGTGGTCAG,0.17
17,AGAGGCACGTGAAGTT,0.24
18,TAGTGCACGTGTAGCT,-0.06
19,GTGAACACGTGTAATG,0.08
20,GTTGTCACGTGGGACT,0.07
21,TTGTCCACGTGGTTTA,-0.03
22,ATGGTCACGTGGTAGG,0.11
23,GTCAGCACGTGGAAGG,0.15
24,TTTTTCACGTGGTCAA,0.18
25,GACGTCACGTGGGGGG,0.02
26,TATTGCACGTGGGTAT,-0.13

row,Sequence,relative binding free energy [kcal/mol]
1,CTATTCACGTGGGTAT,0.15
2,GTCTTCACGTGTGATG,0.39
3,AGGTACACGTGTTGAA,0.04
4,GTGATCACGTGTGGTG,0.19
5,GTCTACACGTGGTGAG,0.04
6,CGCTTCACGTGTTGTT,0.26
7,AATAGCACGTGATTGG,-0.01
8,AATGGCACGTGCGTGG,-0.18
9,AGGAGCACGTGTGTGC,-0.11
10,TCAGTCACGTGTTAAT,0.1
11,GAGTGCACGTGTTTAG,0.02
12,AGTTACACGTGCATGT,0.13
13,CTTTTCACGTGGCGGG,0.18
14,GGGGTCACGTGGGCAA,0.01
15,GGAGGCACGTGCTAGG,-0.2
16,ACGTACACGTGGGGCT,-0.08
17,GGGACCACGTGGGAAG,0.03
18,TCCGACACGTGTGGGG,0.02
19,GTGTTCACGTGTTTCA,0.16
20,TTTAACACGTGGCTTG,-0.05
21,GGGTACACGTGGGTTG,-0.06
22,AATTACACGTGATGTG,0.15
23,GGTCGCACGTGCGGGA,-0.05
24,TGGGTCACGTGATGGG,0.29
25,GGGTTCACGTGTTTAT,0.38
26,CGTTGCACGTGATATT,0.13

row,Sequence,relative binding free energy [kcal/mol]
1,GTATGCACGTGTTACG,0.04
2,TGGGACACGTGAATGT,0.27
3,ATAAGCACGTGCTGGT,-0.14
4,GGTGGCACGTGAGATC,0.24
5,GTGCTCACGTGGGCGA,0.18
6,TCGTTCACGTGGCGTT,0.19
7,GGATACACGTGAGTTG,0.38
8,CGGTGCACGTGTTCTG,0
9,AGGCGCACGTGGGCTG,-0.21
10,TTAGTCACGTGTACGA,0.09
11,ATACTCACGTGTTGTA,0.05
12,CTGGGCACGTGTTATG,-0.12
13,GCGTGCACGTGTGTTC,0
14,AGGGGCACGTGCGGTT,-0.09
15,GGCAGCACGTGGGAAT,-0.05
16,AAGGGCACGTGTTGAT,-0.09
17,AGTATCACGTGGTTCA,0.11
18,TTAATCACGTGGGTTG,0.12
19,AGGATCACGTGTCTGT,0.14
20,TTGGCCACGTGTGTTC,-0.05
21,CGGGGCACGTGGCGGG,-0.21
22,GATAACACGTGAGGGA,0.36
23,TGAAACACGTGATATT,0.12
24,TCTCGCACGTGTTTGT,-0.07
25,TGAAGCACGTGGGGAG,-0.17
26,GGAGCCACGTGAGTGT,0.12

row,Sequence,relative binding free energy [kcal/mol]
1,GTCTTCACGTGCGTGT,0.2
2,ATTGGCACGTGGGAAT,-0.05
3,CGTGACACGTGGAGTG,-0.09
4,AGGGTCACGTGTTAAC,0.27
5,TATAGCACGTGTATGG,-0.01
6,GTATCCACGTGAAGTG,0.43
7,GTAGGCACGTGCGTAT,-0.29
8,AAATACACGTGGAGGG,0.05
9,GAGTGCACGTGATGTA,0.04
10,AGGAGCACGTGATGCG,-0.02
11,ATAGTCACGTGGGTGT,0.06
12,GTGGTCACGTGGGCGC,0.05
13,TATAGCACGTGGGTTA,-0.27
14,TTTAGCACGTGTTGAG,-0.03
15,GTTTTCACGTGAATCG,0.4
16,GCTGGCACGTGAGAGT,0.11
17,TATGACACGTGTGGCG,0.05
18,TTTGGCACGTGTAGGC,0.03
19,TCGTTCACGTGCGGGA,0.27
20,GTTCTCACGTGTGATG,0.26
21,AGTGGCACGTGAAGTA,0.06
22,GGGTCCACGTGGTGCT,-0.06
